Screen size: about 310,000 compounds; about 2,200 (0.71%) showed an effect of 50% or more. The effect is printed as a negative number. The list shows a part of the results.
Target: human ether-à-go-go-related gene (hERG) potassium channel (human, UniProt Q12809)
Assay: primary screen, population patch clamp on CHO cells stably expressing hERG

human ether-à-go-go-related gene (hERG) potassium channel, sequence (Q12809 whole entry, looked up): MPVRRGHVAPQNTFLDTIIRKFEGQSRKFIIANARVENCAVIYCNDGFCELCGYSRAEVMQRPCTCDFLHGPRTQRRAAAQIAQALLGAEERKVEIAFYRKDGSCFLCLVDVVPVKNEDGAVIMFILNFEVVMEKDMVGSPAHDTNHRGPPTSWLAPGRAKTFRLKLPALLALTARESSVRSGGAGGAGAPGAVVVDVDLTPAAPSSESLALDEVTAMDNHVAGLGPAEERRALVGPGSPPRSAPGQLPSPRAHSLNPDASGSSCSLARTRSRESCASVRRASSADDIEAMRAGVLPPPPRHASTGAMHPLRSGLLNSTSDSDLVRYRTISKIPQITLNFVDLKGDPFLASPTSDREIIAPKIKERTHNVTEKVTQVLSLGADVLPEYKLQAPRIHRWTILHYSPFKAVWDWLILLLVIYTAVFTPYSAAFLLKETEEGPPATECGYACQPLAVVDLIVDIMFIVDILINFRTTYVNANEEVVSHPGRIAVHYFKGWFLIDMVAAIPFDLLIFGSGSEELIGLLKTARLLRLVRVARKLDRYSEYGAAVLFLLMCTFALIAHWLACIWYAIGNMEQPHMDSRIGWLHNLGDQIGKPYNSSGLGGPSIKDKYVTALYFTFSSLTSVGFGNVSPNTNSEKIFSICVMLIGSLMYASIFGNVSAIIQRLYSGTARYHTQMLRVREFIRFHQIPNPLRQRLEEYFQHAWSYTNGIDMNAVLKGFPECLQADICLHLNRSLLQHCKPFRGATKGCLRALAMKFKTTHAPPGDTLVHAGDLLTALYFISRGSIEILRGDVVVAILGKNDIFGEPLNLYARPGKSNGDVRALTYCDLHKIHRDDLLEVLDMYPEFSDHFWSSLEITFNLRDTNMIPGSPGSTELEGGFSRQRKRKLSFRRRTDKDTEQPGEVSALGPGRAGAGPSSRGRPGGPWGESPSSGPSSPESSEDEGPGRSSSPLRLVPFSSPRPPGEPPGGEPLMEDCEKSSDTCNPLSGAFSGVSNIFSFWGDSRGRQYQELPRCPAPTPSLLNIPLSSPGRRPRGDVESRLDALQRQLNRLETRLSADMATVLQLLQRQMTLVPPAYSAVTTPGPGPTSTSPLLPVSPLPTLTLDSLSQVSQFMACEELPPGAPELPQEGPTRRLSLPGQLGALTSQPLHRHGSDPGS

SMILES	hERG current change (%, negative = inhibition) at 1uM [%]
Cc1ccc(C(=O)Nc2ccc(C)c(S(=O)(=O)N3CCOCC3)c2)c(C)c1	1.15
Cn1c(NCc2ccc(Cl)cc2)nc2ccccc21	1.92
COc1ccc(C(=O)Nc2c(N)nc[nH]c2=O)cc1	3.41
CCOC(=O)c1cc(-c2cccnc2)nn1-c1ccccc1	9.32
CCOc1ccc(NC(=O)CC2C(=O)N(c3ccc(OC)cc3)C(=O)N2CCc2cccs2)cc1 (stereo not shown)	-19.1
O=C1CC(C(=O)N2CCc3ccccc32)CN1c1ccccc1 (stereo not shown)	15.2
CCOC(=O)C1CCCN(S(=O)(=O)c2ccc(Br)c(OC)c2)C1 (stereo not shown)	8.42
CCN1CCN(S(=O)(=O)c2cccc3nsnc23)CC1	3.58
O=C(NCc1ccc(F)cc1)c1cc(-c2ccncc2)nc2ccccc12	-33.2
CC(C)C(=O)N1CCC(CN=CC2=C(O)CC(C)(C)CC2=O)CC1	5.83
C/C(CC(=O)Nc1cccnc1)=N\NC(=O)C(=O)Nc1cccc(C)c1	17
O=C(NCc1cccs1)C1CCCN1C(=O)Nc1cccc(Cl)c1 (stereo not shown)	10.5
Nc1ccnn1Cc1cccs1	-3.12
CCOC(=O)C(Sc1n[nH]c(N)n1)c1ccccc1 (stereo not shown)	8.42
Cc1ccc(NC(=S)N2CCCC2)cc1C	18.9
CC(C)(C)OC(=O)NCc1ccc(CNC(=O)c2nc[nH]c2C(=O)N2CCN(C(=O)OC(C)(C)C)CC2)cc1	14.4
O=C(N/N=C/c1c(F)c(F)c(F)c(F)c1F)c1cccc(S(=O)(=O)N2CCOCC2)c1	13.4
O=C(NC1CCCCC1)c1c2c(nc3ccccc13)CCC2	13
O=C(NCCc1c[nH]c2ccccc12)C(=O)NCC1CCCO1 (stereo not shown)	18.2
O=C(NCCOc1ccccc1Cl)C(=O)c1c[nH]c2ccccc12	11.6
Cc1c(-c2ccccc2)sc2nc[nH]c(=S)c12	6.23
C=CCNc1nc(N2CCOCC2)c(C#N)c2c1CN(C)CC2	-5.08
O=C(CN(c1cccc(C(F)(F)F)c1)S(=O)(=O)c1ccc(Cl)c([N+](=O)[O-])c1)NCc1ccc(F)cc1	11.3

SMILES	hERG current change (%, negative = inhibition) at 1uM [%]
COc1cccc(CC2(CO)CCN(Cc3ccc(NC(C)=O)cc3)CC2)c1	1.37
Cc1ccc2nc(C)cc(Nc3ccc4c(c3)OCCO4)c2c1.Cl	-27.9
O=C(NN=C1c2ccccc2-c2ccccc21)c1cccc(Br)c1	17.7
COc1ccc(C(=O)CSC#N)cc1OC	10.8
CC1(C)CC(=O)C2=C(C1)OC(/N=C/N1CCCC1)=C(C#N)C2c1ccccc1 (stereo not shown)	7.1
O=C(CSC1=NCCN1)Nc1ccccc1[N+](=O)[O-]	10.9
COC(=O)c1cc(NC(=O)C2COc3ccccc3O2)cc(C(=O)OC)c1 (stereo not shown)	-2.91
O=S(=O)(Nc1ccc(Cl)nn1)c1ccccc1	10.2
C[CH2][Hg][S]c1ccccc1C(=O)[O-].[Na+]	15.9
CCOC(=O)CNC(=O)COc1coc(CN2CCN(c3ccccc3F)CC2)cc1=O	42.8
O=C(O)c1c(-c2ccccc2)c2oc3ccccc3c2[nH]c1=O	-5.12
CC(C)c1ccc(OCC(=O)NCCO)cc1	26.5
CCOC(=O)C1CCN(C(=O)c2ccccc2NS(=O)(=O)c2cc(C)ccc2C)CC1	-5.03
COC(=O)c1ccc(CSc2nc3c(c(=O)n2-c2ccc(Br)cc2)SCC3)o1	9.83
CC(C)c1ccc(/C=N/n2cnnc2)cc1	6.76
O=C1C=C(O)c2c(O)cccc2C1=O	12.7
FC(F)(F)c1nc(-c2ccncc2)ncc1-c1nnnn1-c1ccccc1	13.6
Cc1ccc(-n2nnnc2-c2cnc(N3CCCC3)nc2C(F)(F)F)cc1	1.25
CCCCCCSc1nnc(-c2cnn(-c3ccccc3)c2-n2cccc2)n1C	6.19
C=CCN(CC=C)C(=O)C1CCC(C(=O)N(CC=C)CC=C)CC1 (stereo not shown)	8.47
CCOC(=O)N1CCN(Cc2cc(Cl)c3cccnc3c2O)CC1	5.41
Cc1cccc(C)c1NC(=O)CN(C)C(C)C(=O)NCC(=O)Nc1ccc(F)c(F)c1F (stereo not shown)	9.59
O=C(NC(=O)N1CCN(c2ccc([N+](=O)[O-])cn2)CC1)c1c(Cl)cccc1Cl	9.87

SMILES	hERG current change (%, negative = inhibition) at 1uM [%]
COc1ccccc1OCC(=O)Nc1ccccc1C(=O)NCc1cccnc1	-2.19
CCCCCn1c(=O)c(C(=O)NCc2ccco2)c(O)c2ccccc21	-1.78
COc1ccc(OCCOCCN2CCN(C)CC2)cc1.O=C(O)C(=O)O	6.48
CCOC(=O)COc1ccc(C)cc1-c1ccno1	-1.23
COc1cc(C(=O)OCC(=O)c2ccccc2)cc2c1OCCO2	16.7
CCC(=O)NC(NC(=S)Nc1ccccc1Br)C(Cl)(Cl)Cl (stereo not shown)	9
O=S(=O)(N1CCOCC1)n1c(Cc2ccccc2)nc2ccccc21	7.65
CC1Cc2nc(SCC(=O)NCC3CCCO3)n(-c3ccc(F)cc3)c(=O)c2S1 (stereo not shown)	4.61
CCOc1ccc(C(=O)NCc2ccccc2)cc1Br	-0.39
CCCNC(=O)NC1CCCCCCC1	9.61
O=c1c(-c2ccc(F)cc2)coc2c3c(ccc12)OCCO3	5.3
COc1ccc2c(c1)sc1nc(=O)ccn12	12.1
COc1ccc(CNC(=O)C2CCCN(S(=O)(=O)c3ccc(Br)s3)C2)cc1 (stereo not shown)	9.75
O=C(CN1CCN(S(=O)(=O)c2ccccc2)CC1)NCCc1ccccc1	15
Cc1cc(C(=O)NC(CC(C)C)C(=O)O)cc(C)c1[N+](=O)[O-] (stereo not shown)	9.99
CC(C)(O)c1cc2ccc(C#Cc3ccsc3)cc2c(=O)o1	9.8
CCOC(=O)NC(Nc1cc(C)ccn1)(C(F)(F)F)C(F)(F)F	9.58
Cc1cccc(Oc2nccc(C(F)(F)F)c2C(=O)Nc2ccc(F)cc2F)c1	8.88
CCCN(CCC)c1ccc(CC(=O)NC(C)Cc2ccccc2)cc1 (stereo not shown)	4.39
COc1ccc(C(=O)c2c(C(F)(F)F)oc3c2C(=O)c2ccccc2C3=O)cc1	10
O=C(CN(C(=O)CCC(=O)Nc1ccccn1)c1ccc2c(c1)OCCO2)NCCc1ccccc1	9.82
CCNC(=O)NNC(=O)C1CC(c2cccs2)=NO1 (stereo not shown)	12.3
CCOC(=O)C(=O)N1c2ccccc2C(N(C(=O)C(=O)OCC)c2ccccc2)CC1C (stereo not shown)	13.8

SMILES	hERG current change (%, negative = inhibition) at 1uM [%]
CNC(=O)CSc1nnc(-c2ccco2)n1-c1cc(C)ccc1C	6.45
COC(=O)Cc1ccc(NC(=S)NC(C)(C)C)cc1	14.3
CC(C)NC(=O)CSc1nc2[nH]ncc2c(=O)[nH]1	9.74
CC(=O)N1CCOc2ccc(S(=O)(=O)Nc3cccc(C)c3)cc21	8.06
CCN1CCN(CCCNC(=O)c2ccc3c(c2)NC(=O)c2ccccc2S3)CC1	5.02
CC(=O)c1cccc(NC(=O)NNC(=O)c2ccc(-c3ccccc3)cc2)c1	3.75
CN1C(=O)CC(Nc2cccc3cccc(N)c23)C1=O (stereo not shown)	7.47
CC1=NN2C(=N)/C(=C\c3cc(C)n(-c4ccccc4)c3C)C(=O)N=C2S1	3.04
CCC(C)c1ccc(-c2cc(C(=O)OCC(=O)Nc3cc(C)on3)c3ccccc3n2)cc1 (stereo not shown)	12.4
NC(=O)CC(NC(=O)Cc1ccc(Br)cc1)c1ccc(N2CCN(c3ccc(F)cc3)CC2)c([N+](=O)[O-])c1 (stereo not shown)	-2.34
CCN1CCN(CCNC(=O)c2ccc3c(c2)N(Cc2ccc(F)cc2)C(=O)/C(=C/c2ccccc2)S3)CC1	-2.59
CCOC(=O)c1sc(-c2ccccc2)cc1NC(=O)c1ccc(S(=O)(=O)N(CCOC)CCOC)cc1	9.24
CCOC(=O)C1=C(COC(=O)c2cc(Br)c(Br)s2)NC(=O)NC1C (stereo not shown)	6.29
CCCNC(=O)CS(=O)(=O)c1ccccc1	0.126
CCN1CCCC1CNCc1cccc(OC)c1OCc1ccc(F)cc1.Cl (stereo not shown)	-8.28
CC(=O)Nc1ccc(NCN2C(=O)[C@@H]3[C@H]4CC[C@H](C4)[C@@H]3C2=O)cc1	1.6
COC(=O)c1ccc(Cn2nc(C(F)(F)F)cc2C)cc1	9.1
CCCCOc1ccc(NC(=O)CSc2cccc3cccnc23)cc1	0.239
CCOC(=O)c1ccc(NC(=S)NNC(=O)COC)cc1	13.8
COc1ccccc1N1CCN(/N=C/C=C/c2ccccc2[N+](=O)[O-])CC1	10.2
CC(=O)OC(C(=O)NCCc1ccccc1)c1cccnc1 (stereo not shown)	5.94
CCn1nc(C)c(/C=N/NC(=S)Nc2ccc(Cl)cc2Cl)c1C	-16
